Here are results for 172 sequences from publication PMC10668032.

Some of the results follow. At the low end of the ranking, values are background and their order means little.

The target of this assay is SIX1-Q177R homeodomain (UniProt Q15475). The assay is described as follows: universal protein binding microarray. To be noted: Universal all-10-mer PBM (8x60K, AMADID 030236), 300 nM GST-tagged protein, Alexa Fluor 488 anti-GST; buffer, salt, pH and temperature not stated; high values mean tight binding; most listed sequences are background and not binding sites; double strand, one strand shown.
CCCATCAA: the binding signal is -0.129 E-score.

For the sequence AGGCCAAT, the binding signal is -0.341 E-score. Turning to ACTCAGGG, the binding signal stood at 0.162 E-score.

ACCGCGTG: the binding signal was determined as 0.246 E-score. Next, GGTAGGTA: 0.0509 E-score; AATCCTCG: -0.23 E-score; CTTTCCCC: -0.104 E-score. Under ACCAAAAT stands 0.158 E-score; under GAAGATCA, -0.124 E-score. For CCGGAACG, the binding signal is -0.0542 E-score.

On to CGCCCGGC, for which the binding signal came to 0.0667 E-score.

CTCTTTCA: the binding signal is -0.0765 E-score. Next, GAACGACA: 0.238 E-score. With CATCGTGG, the binding signal is -0.107 E-score.

For GAGCGAGA, the binding signal was -0.0569 E-score.

In the case of ATCTGTCA, the binding signal is -0.139 E-score. With CATCCCTC, the binding signal was -0.0291 E-score. Consider ACCGGCCC, for which the binding signal came out at 0.0711 E-score. Consider CAAGAGCC, for which the binding signal is -0.234 E-score. As for TATCTCGA, the binding signal is -0.15 E-score. Next, TACATTAA: 0.0361 E-score. Next, CGGGCACG: -0.0183 E-score; AACCGATC: -0.0142 E-score; ACTCTAAT: 0.0905 E-score. In the case of TCGCGTCA, the binding signal amounted to 0.118 E-score. Turning to GCTAGATA, the binding signal was found to be 0.0333 E-score.

As for AGGTAGAC, the binding signal is -0.00394 E-score. GCACGCCA: the binding signal was -0.0164 E-score. Next, CTATACCC: 0.247 E-score; AGCTGTTC: -0.306 E-score; CGACGGTA: 0.0563 E-score. Turning to GGGTTTAC, the binding signal worked out at 0.102 E-score. As for CTGCGTTA, the binding signal was -0.244 E-score. Next, GCGAGCAA: -0.132 E-score; CATAGTCC: -0.183 E-score; CCCTATCA: -0.0311 E-score. Next, CTCCCCAG: -0.0811 E-score. Turning to ACCTCCGG, the binding signal was 0.138 E-score. Next, GACGCCGA: 0.174 E-score; AAGGTTAA: -0.0483 E-score. Under ACCTCCAC stands 0.0541 E-score; under GCGCCTCC, 0.0615 E-score; under CGACGTCG, -0.113 E-score.

For the sequence GGTGACAA, the binding signal is 0.0258 E-score. Next, GGTCATAC: -0.0718 E-score.

Turning to AGCCACCC, the binding signal was 0.115 E-score.

On to CATAGATC, for which the binding signal is -0.0634 E-score. On to ATAACTCA, for which the binding signal is -0.0271 E-score. Under CGCCCTAA stands -0.0647 E-score; under CCCTCTAA, -0.0704 E-score; under CATTAACA, -0.0111 E-score.

Regarding CACCGCTG, the binding signal is 0.249 E-score. Under GTTGCCGA stands -0.0647 E-score; under AAACCTGA, -0.0946 E-score; under CAGTGATC, 0.0143 E-score. Consider AGCGAAGG, for which the binding signal is -0.159 E-score.

For CTAGGTAA, the binding signal was found to be 0.0305 E-score.

As to ACTTACCG, the binding signal came out at 0.0486 E-score. Next, ATTCCCTC: -0.0571 E-score; AGGATTGG: -0.142 E-score. Under GTAAACCA stands 0.0669 E-score. For TAATTGGA, the binding signal was -0.0806 E-score. For AGAACCGA, the binding signal was -0.15 E-score. With ACCGGCAG, the binding signal came out at 0.131 E-score. Regarding GAGGGTAC, the binding signal was 0.183 E-score.

As to TCTATAGA, the binding signal was determined as 0.00643 E-score. Next, GGGTTCGA: 0.116 E-score. With AGCGCGGC, the binding signal was -0.124 E-score.

Regarding ATCTAGCC, the binding signal was -0.0661 E-score. Next, ACCGTGTA: 0.438 E-score; ACAGGCAG: -0.0434 E-score. On to CCGGGCAG, for which the binding signal was found to be 0.072 E-score. Next, ACTTGGCT: -0.0747 E-score; TAATACGA: 0.0808 E-score; CGGGGTAC: 0.224 E-score. Turning to GGACGTCA, the binding signal is -0.183 E-score.

With CCCTGTAA, the binding signal was determined as 0.0288 E-score.

As to GTTATGAA, the binding signal turned out to be 0.0689 E-score. As to GACGTATC, the binding signal was -0.0235 E-score. Next, CACTACGG: 0.188 E-score. Next, CAAGCACG: -0.0496 E-score; AGTAATAG: -0.12 E-score; CATATTGC: -0.207 E-score. Take CGCAGGTC: the binding signal is -0.272 E-score. For the sequence CCCCCAAC, the binding signal amounted to 0.17 E-score. Under AGAGAATG stands -0.252 E-score. Turning to ATCAGATG, the binding signal was -0.0562 E-score. Regarding AACTTCAA, the binding signal is -0.0573 E-score. CCGCTTTC: the binding signal was -0.107 E-score.

For CTGAATGA, the binding signal was -0.123 E-score. Take CGTCACCC: the binding signal is -0.0338 E-score. Under ATACAGAC stands -0.0141 E-score; under ATGGCTAA, -0.0563 E-score. Under CGCTTACC stands -0.0323 E-score; under AACGTTGT, -0.222 E-score. Under AAGTCCAC stands -0.223 E-score; under AAGAGCAG, -0.202 E-score. With ACGCAGGC, the binding signal is -0.127 E-score. Under ACCAGACG stands -0.0377 E-score.

GCGGAGAA: the binding signal was -0.134 E-score. As for CTGAATAC, the binding signal is -0.107 E-score. As for CGCTACGC, the binding signal is -0.0806 E-score.

As to AGCTTATA, the binding signal was -0.237 E-score.

Turning to AGCAAAAG, the binding signal is -0.346 E-score.

Take CCGCGCCG: the binding signal was found to be 0.0327 E-score. Consider ACTCCTTG, for which the binding signal turned out to be 0.141 E-score. Under CAAGAAAC stands -0.108 E-score; under ACAGATGG, -0.163 E-score. With ACCGGAGG, the binding signal came out at 0.183 E-score.

Turning to CCGTCAGA, the binding signal was -0.0859 E-score. Under ACGCAGCA stands -0.104 E-score. Take AAACGAGT: the binding signal worked out at 0.0876 E-score.

With TAGCAATA, the binding signal is -0.127 E-score. Under ACCATTCG stands 0.0723 E-score; under CCCCCTCG, 0.13 E-score; under CCGGGGTA, 0.284 E-score. Next, AATAAGGC: -0.176 E-score; GAAAGTGA: 0.0537 E-score; CCTAGCCG: -0.227 E-score.

In the case of CGTGCGTC, the binding signal is 0.0875 E-score. Regarding AAACGCGA, the binding signal was -0.0925 E-score. Regarding AATGGCTG, the binding signal is -0.16 E-score.

As for GTTTGTCA, the binding signal was -0.0318 E-score.

As to CGCAGGAA, the binding signal was -0.0176 E-score. For the sequence GGGCCCAA, the binding signal was -0.228 E-score.

For AACCCAGT, the binding signal was 0.128 E-score. Under AATGTTGA stands -0.0639 E-score.

With GACAGGTA, the binding signal was -0.0714 E-score. For the sequence AGACGCGC, the binding signal is -0.083 E-score.

As to GATGTCGA, the binding signal turned out to be 0.0722 E-score. Take CAGCCAAG: the binding signal is -0.0627 E-score. Next, CGTCCTTC: -0.189 E-score; CTTTATTC: -0.148 E-score. For GGCCCACA, the binding signal was -0.0956 E-score. Take ACCACTTA: the binding signal was found to be 0.0302 E-score. Next, AATGCTTA: -0.149 E-score; ATATGGGG: 0.0724 E-score; CGCTCTAG: -0.0165 E-score. Under CACTACGC stands 0.166 E-score; under AAACTCCG, -0.117 E-score; under ATACACTC, 0.369 E-score. Next, CCAACGGC: -0.184 E-score; CACCCCCG: 0.325 E-score.

On to GCGCAATA, for which the binding signal came out at 0.122 E-score. Under CACCAAGA stands 0.341 E-score; under CCTACTAA, -0.0637 E-score. Under AACCCTGG stands 0.0197 E-score; under GCTTAAAC, -0.21 E-score.

With AGCTCCAC, the binding signal is -0.151 E-score. Next, CCTGGGTA: 0.164 E-score. Under AGCTTCTC stands -0.289 E-score. Regarding CAACCGGC, the binding signal is -0.0605 E-score. Under ACCAGTAA stands 0.179 E-score. Next, TGTCTCAA: 0.086 E-score; ATACCTGC: 0.15 E-score; GGCACCCC: 0.158 E-score.

On to GGTCACCA, for which the binding signal was -0.0527 E-score. Next, AACAAGCT: -0.221 E-score; ATGTCCAC: -0.145 E-score; TAAGAACA: 0.0896 E-score. On to CCACAAGG, for which the binding signal is -0.0167 E-score. Next, AAGGGCGC: -0.213 E-score. Take ACGAGGTG: the binding signal turned out to be 0.251 E-score. Under TAGGTCAA stands -0.0796 E-score; under CTTCAGAC, -0.0523 E-score. Consider GGATTAAA, for which the binding signal was -0.103 E-score. Next, TCCTGCGA: -0.12 E-score; ACTACGTC: 0.000585 E-score; ATTAAAGG: -0.126 E-score.

As for ATCGCCGA, the binding signal is -0.231 E-score. Under AGGGTTCG stands 0.0298 E-score; under CTGTCAAG, -0.203 E-score.
